Measured values reported in the supplement of paper PMC11417369.
± gives the standard deviation of the averaged measurements. The list shows a part of the results.

tested on: PfAP2-EXP AP2 domain (GST-tagged); test: gcPBM binding intensity (ln(normalized median fluorescence intensity)); higher = stronger DNA binding
Procedure, shortened: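 An Agilent 4 × 180k array carrying primer-extended double-stranded 36-bp intergenic genomic probes and negative controls received GST-tagged P. falciparum DNA-binding domains expressed in E. coli, about 25 μg on average, for 1 h. The binding buffer contained 1× PBS, 1% milk, 0.2 mg/ml BSA, 0.5% salmon testes DNA and 0.03% Triton X-100. Binding intensity is the top Masliner-normalised natural-log median intensity across replicate spots of either probe orientation, read after Alexa488 anti-GST antibody staining and a 488 nm scan.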

Row | Sequence | gcPBM binding intensity (ln)
1 | ATTTCACAGAGACACACACACAATATATTTCCTTTT [CACACA_site7773] | 8.82 ± 0.5
2 | ATAAAATATATGAAGACACACATAACATCATATTTT [CACACA_site3144] | 8.38 ± 0.67
3 | TTTATATTAAAATATTGTACGGACATTATTTTGTAA [XGTACX_site8128] | 8.22 ± 0.35
4 | AACCGGGCCTAAGATGTAATGCCTTAGCCTATAAAA [CACACA_negctrl_site479] | 8.19 ± 0.49
5 | CATAATATGACATACACACACAAAAAAAAAAAAATA [CACACA_site1285] | 8.46 ± 0.62
6 | ACTTTAACCTGAACGGTGCATAAAATTTTGGCATTA | 8.94 ± 0.2
7 | CACGAACACAAACACAAACACACATCATATATATAT [CACACA_site1322] | 9.72 ± 0.13
8 | AAAGATAAAAAAAGTACACACACACCGATATATATA [CACACA_site9006] | 9 ± 0.44
9 | AATATATATAAAAAGGGAAAAATATATAAATAGATA [XGTACX_negctrl_site52] | 8.57 ± 0.51
10 | AAAAAATTGACTAATGCACACAATTACAGATATATA [CACACA_site5010] | 8.57 ± 0.29
11 | TCGTGCATAAATCATACACACACACCGATATATATA [CACACA_site8767] | 8.955 ± 0.064
12 | AAAAAAAAAAAAAACGCACACATTTTTACAATTCTA [CACACA_site3271] | 8.58 ± 0.099
13 | TTTGTATCCTTTTTGACATGCAACCATTCGGGTACA [TGCATGCA_site506] | 8.76 ± 0.37
14 | TCACAATTTTTTAGTACACACATATAAATATATAAA [CACACA_site1537] | 8.52 ± 0.17
15 | TCTATTAATTAATATACACACATTATGTATATATAT [CACACA_site2541] | 8.62 ± 0.3
16 | TTTCATTAATCTAATAGTACAGAAAATTGAGAAAAA [XGTACX_site8395] | 8.72 ± 0.34
17 | GTATACAAACATATAAATATAAATGTATTATTTGTT [CACACA_negctrl_site756] | 8.1 ± 0.45
18 | AAGAGAAAAAGAATGAAAGAAAAAAAAAAAAAATAT [CACACA_negctrl_site1527] | 8.29 ± 0.17
19 | CCCACAGACAAAAACACACACAAAGGTGTTCTTATA [CACACA_site4840] | 8.8 ± 0.74

Row | Sequence | gcPBM binding intensity (ln)
20 | TTTTTAAAGGTGATAAAACACACGATTTAGAAATGT [CACACA_site3160] | 8.55 ± 0.41
21 | CTACATAAAAAAATATGTACATATATATATATATAT [XGTACX_site667] | 10 ± 0.46
22 | TTATCGACCAATAAAGCATGCAAAAAAAAAAAAAAA [TGCATGCA_site788] | 8.56 ± 0.35
23 | TAAATTTTTATTTGTAGTACTATATATATATATATA [XGTACX_site1026] | 10.1 ± 0.23
24 | TTTTTTTGCCATATTACACACACACGGGTAAACCCC [CACACA_site6874] | 8.72 ± 0.5
25 | TTTAATATAACTATTTGTACATAAAGAATATAAATA [XGTACX_site4594] | 8.39 ± 0.28
26 | TAATGAAAATATATAACACACAAAAGTTATAAATAT [CACACA_site1189] | 8.62 ± 0.28
27 | GTGTTGAATTATGTGCTTTTTTCTTTCTACTCAGTA [XGTACX_negctrl_site464] | 9.05 ± 0.45
28 | TATATATGTATCAAGTGTACAGTTTTAAAAAAAAAA [XGTACX_site6011] | 8.64 ± 0.52
29 | GAACATTTGAAATATGCACACATGTATAAACATACA [CACACA_site5463] | 8.56 ± 0.25
30 | ATACATCGTATATAAGTGCATATTAAGGTCTTAAGA [GTGCAC_site9560] | 8.64 ± 0.38
31 | ACACACAATACAAAAGTGCATATAATAATTAATCAT | 8.73 ± 0.18
32 | TGTTTTTAAAAAAAAAAAAAATCACACCGGCAGGTA [CACACA_negctrl_site1437] | 8.43 ± 0.58
33 | TGCGTATATATATACACACACATATATATATTTTAA [CACACA_site1952] | 8.5 ± 0.3
34 | AAAAAAAAAAGACACACACACAAAATAAACAAACAA [CACACA_site7308] | 8.76 ± 0.63
35 | TATTTCATTAATGTCACTTTGAAAGAAATGAAAAAA [CACACA_negctrl_site1803] | 8.31 ± 0.52
36 | CATATTATTCTTTTCACACACGCGTTAATAATAATC [CACACA_site3931] | 9.04 ± 0.5
37 | TATTGACATATATTAGTGCAATAATGAAATCAAGTA | 8.82 ± 0.11
38 | AAAAAAAAAAAAAACACACACATACAGACAAAAATG [CACACA_site83] | 8.76 ± 0.59

Row | Sequence | gcPBM binding intensity (ln)
39 | CTAAATTATAGATCAGTGCAATTTAATATGAGTCCA | 8.48 ± 0.28
40 | TTGTAATTATTAAACACACACAAAATATATATAATA [CACACA_site2523] | 8.71 ± 0.53
41 | AGGTGAGCTCAGACTACACACACAAAGAAAAAAATA [CACACA_site8439] | 8.79 ± 0.73
42 | CCATAAAAATATAATACACACATATATATTAACATA [CACACA_site4102] | 8.57 ± 0.44
43 | ATGTATATGATTAAATGTACGTAAACAAATTTGTAA [XGTACX_site8174] | 8.98 ± 0.49
44 | ACCACATAAAACAAATGTACTTGAAATATATGCGTA [XGTACX_site5155] | 8.43 ± 0.4
45 | CAAAGGGAAATTAACACACACATATTTATATTTATA [CACACA_site7202] | 8.47 ± 0.47
46 | TATTAATAAATTTATAAAACAGGTATATATATATAT [CACACA_negctrl_site615] | 10.1 ± 0.18
47 | AGAGTACAAGTAAATACACACATATAGATGAAAATA [CACACA_site6635] | 8.68 ± 0.28
48 | ATATATATATATATATGTACACACATCAATCATATT [XGTACX_site4005] | 10.2 ± 0.54
49 | TGCAGTCTGGAGAAGAGTACATAGTATCTGGTAGCT [XGTACX_site2021] | 8.66 ± 0.37
50 | AAGAAAACTTAAAATAAAAGCATATTTTATCTTACA [TGCATGCA_negctrl_site366] | 8.05 ± 0.24
51 | TTTCTTACAACAACAACAAAAAAAAATAAATAAAAT [GTGCAC_negctrl_site711] | 8.64 ± 0.53
52 | ATATTTTATATTTCTTGTACATATATTTGTAGATAT [XGTACX_site1140] | 8.55 ± 0.33
53 | AATTTATTTTTAAAAAGTACATACTTAAGAAAACGA [XGTACX_site3660] | 8.45 ± 0.81
54 | TATTATTTTTTTATTCTATTAAAAAGAAAAAAATGA [CACACA_negctrl_site407] | 7.95 ± 0.47
55 | GATTCATTTCATAATACACACAACAAATATTTCAAA [CACACA_site120] | 8.63 ± 0.4
56 | CCATTTAAAACATTTTGTACTTATTTTACATTTCTG [XGTACX_site4270] | 8.7 ± 0.22
57 | TCGACAATTTTATAAAGTACTTATTAGAAATATGAA [XGTACX_site7133] | 8.3 ± 0.34
